Assay results reported in PubChem BioAssay AID488969 (Vanderbilt High Throughput Screening Facility, 2010).
The full ranking holds about 110,000 compounds; the median of “z-score” is about -0.1, and the highest 2% start at about 2. The list shows a part of the results. Calls of active or inactive are those of the source.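 The calls were made as follows: active = z-score in the third read window above 3 or below -3; inactive = the rest.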

What follows are compounds tested against Metabotropic glutamate receptor 8 (Rattus norvegicus) (UniProt P70579) (assay: rat mGluR8 modulators via GIRK flux, primary screen, cell-based, thallium flux, HTS (AID 488969)). Settings: HEK293 rat mGluR8, GIRK (G protein-gated inwardly rectifying potassium channel) thallium flux, FluoZin2; at 10 µM; stronger effect = higher value; submaximal glutamate (EC20) added with thallium.
Chain of UniProt P70579 (P70579 whole entry, looked up): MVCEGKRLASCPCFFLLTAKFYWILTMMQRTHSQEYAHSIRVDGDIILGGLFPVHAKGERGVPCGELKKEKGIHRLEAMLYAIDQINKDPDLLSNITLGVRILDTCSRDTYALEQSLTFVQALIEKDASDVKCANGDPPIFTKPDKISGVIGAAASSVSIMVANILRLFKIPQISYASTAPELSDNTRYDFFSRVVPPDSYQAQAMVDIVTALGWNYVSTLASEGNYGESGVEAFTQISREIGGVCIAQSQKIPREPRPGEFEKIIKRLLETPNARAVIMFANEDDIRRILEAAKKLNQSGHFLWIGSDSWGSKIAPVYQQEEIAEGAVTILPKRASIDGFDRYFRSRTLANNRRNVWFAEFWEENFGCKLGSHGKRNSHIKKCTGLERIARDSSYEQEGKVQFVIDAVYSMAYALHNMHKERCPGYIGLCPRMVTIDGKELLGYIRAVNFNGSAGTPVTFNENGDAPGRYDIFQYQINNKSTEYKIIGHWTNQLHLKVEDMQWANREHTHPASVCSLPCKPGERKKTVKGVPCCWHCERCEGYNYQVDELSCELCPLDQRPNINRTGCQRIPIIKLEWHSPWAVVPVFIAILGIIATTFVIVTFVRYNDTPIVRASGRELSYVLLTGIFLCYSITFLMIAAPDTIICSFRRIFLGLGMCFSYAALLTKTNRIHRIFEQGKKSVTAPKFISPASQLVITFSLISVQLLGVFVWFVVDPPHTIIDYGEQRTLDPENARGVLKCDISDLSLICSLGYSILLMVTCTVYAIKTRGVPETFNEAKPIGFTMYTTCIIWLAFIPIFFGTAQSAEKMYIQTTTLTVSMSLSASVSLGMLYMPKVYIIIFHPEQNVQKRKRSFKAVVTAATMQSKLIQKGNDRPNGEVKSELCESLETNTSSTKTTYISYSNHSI

Row | Structure (SMILES) | z-score
1 | CCN1CCN(CC(=O)Nc2nc3ccc(OC)cc3s2)CC1 | -0.0184
2 | Cc1ccc(NC(=O)C(=O)NCc2ccc(/C=N/NC(=O)c3c(C)nc4ccccn34)o2)cc1 | -1.21
3 | COc1cccc(/C=C/C(=O)OCC(=O)NCc2ccco2)c1OC | -0.235
4 | S=C(Nc1ccc(Br)cc1)N1CCCC1 | 0.0282
5 | Cc1cccc(NC(=S)N(C)Cc2cn(C)c3ccccc23)c1 | 0.0162
6 | Brc1cccc(C2CC(c3ccccc3)n3nnnc3N2)c1 (stereo not given) | 0.673
7 | O=C(NN=C1CCC(c2ccccc2)CC1)c1cc2c(s1)CCCC2 (stereo not given) | 1.6
8 | Cc1c(C(=O)O)oc2ccc(S(=O)(=O)NCCC3=CCCCC3)cc12 | -0.196
9 | Cc1ccc(CS(=O)(=O)CCC(=O)NC2CC2)cc1 | 0.149
10 | O=c1nc(N2CCCCCC2)nc(N2CCCCCC2)[nH]1 | -0.00468
11 | Cn1c(-c2cccc(OCc3ccccc3)c2)nc2c1c(=O)[nH]c(=O)n2Cc1ccccc1 | -0.175
12 | CNc1ccccc1-c1nc2ccccc2n(C)c1=O | 0.24
13 | O=C(COC(=O)c1cc(Cl)ccc1[N+](=O)[O-])NCc1ccc(Cl)cc1Cl | -0.154
14 | Clc1ccc(Cn2nnc(-c3ccccc3)n2)cc1 | -0.139
15 | O=C(CSc1nnc(Cc2ccccc2)o1)NC1CC2CCC1C2 (stereo not given) | 0.2
16 | CC(C)(C)Cc1nc(-c2ccccn2)no1 | -0.365
17 | Cc1c(C(=O)N2CCCCC2)sc(NC(=O)C23CC4CC(CC(C4)C2)C3)c1C#N | 0.323
18 | COc1ccccc1NC(=O)CCC(=O)Nc1ccccc1OC | -0.281
19 | COc1ccccc1OCC(=O)NNC(=O)c1cccs1 | -0.194
20 | Cc1ccc(NC2CCCCC2NS(=O)(=O)c2ccc(Cl)cc2)cc1 (stereo not given) | 0.13
21 | Cc1c(Br)c([N+](=O)[O-])nn1CC(=O)Nc1sc2c(c1C(=O)OC(C)C)CCC(C)C2 (stereo not given) | 0.163
22 | O=C(NNC(=O)C12CC3CC(CC(C3)C1)C2)c1cnccn1 | 0.248
23 | Cc1ccc(S(=O)(=O)N2CCN(CC(=O)N/N=C/c3ccco3)CC2)cc1 | -0.0503
24 | COc1ccc(Nc2cc(=O)n(C3CCCCC3)c(=O)[nH]2)c(OC)c1 | -0.305
25 | CCN(CC)CCNC(=O)c1cn(C)c2ccc(S(=O)(=O)N(C)C3CCCCC3)cc2c1=O | -0.0651
26 | N#Cc1nc(-c2ccc(F)cc2)oc1NCCN1CCOCC1 | 0.242
27 | COc1ccc(-c2cc(C(F)(F)F)nc(SCC(=O)NCCN3CCOCC3)n2)cc1OC | 0.846
28 | CCn1c(NC(=O)Nc2cccc(C)c2C)cc2sccc21 | active: 3.12
29 | Cc1ccc(NC(=O)CSc2nnc(Cc3cccn3C)n2-c2ccc(F)cc2)c(C)c1 | -0.525
30 | COc1ccc(CNC(=O)COC(=O)c2cc(-c3ccco3)nc3ccccc23)cc1 | -0.777
